Measurements: PubChem BioAssay AID504832 (National Center for Advancing Translational Sciences (NCATS), 2011)
About 18,000 (5.8%) of roughly 310,000 compounds were called active. Inconclusive results, whose numbers are uncertain, are shown with a selection of clear calls. Calls follow the shape of the dose curve; as a rule, active = well fitted inhibition curve with a large enough effect; inconclusive = small, poorly fitted or top-dose-only effect, or another doubt; inactive = no such curve, though single readings can be large or run the other way. No potency is given beside an inconclusive call; the fits are too rough.

assay: Primary qHTS for delayed death inhibitors of the malarial parasite plastid, 48 hour incubation; conditions: P. falciparum luciferase growth in erythrocytes; series mostly up to 28.7 µM; activity change, negative = inhibition: at the top concentration
Outline: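 In quantitative HTS format, infected erythrocytes bearing luciferase-reporter parasites were treated for a single generation at 37 C. Luminescence after adding detection reagent served as the growth measure.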
% is scaled to controls: 0 for no effect and ±100 for the full control effect; potency is read from the fitted curve at half-maximal effect; tags tell the direction and shape of the fitted curve.

Row | SMILES | activity change, negative = inhibition | Potency
1 | O=C(c1ccc([N+](=O)[O-])cc1)N1CCC(n2nnc3cc(F)ccc32)CC1 | inactive: 66% | 
2 | COc1ccccc1/C=C1\SC(=S)N(CCC(=O)Nc2cccc(O)c2)C1=O |  | inconclusive [inhibitor, partial curve, poor fit]
3 | O=C(NC1CCCCC1)c1ccc(COc2ccccc2)o1 |  | inconclusive [inhibitor, single point]
4 | CCN1CCN(c2ccc(S(=O)(=O)N3CCCCC3)cc2NC(=O)c2ccc([N+](=O)[O-])s2)CC1 |  | active: 4.65 µM
5 | C[C@@H](C(=O)NCCc1c[nH]c2ccccc12)[C@H]1C[C@]1(C)[C@H](NC(=O)OCc1ccccc1)c1ccccc1 |  | active: 13.1 µM
6 | CCN1CCN(Cc2c(O)ccc3c2O/C(=C\c2ccc(C)cc2)C3=O)CC1 |  | active: 5.22 µM
7 | CC1CCCN(S(=O)(=O)c2ccc3c(c2)c(=O)nc2ccccn23)C1 (configuration not stated) |  | inconclusive [inhibitor, partial curve]
8 | O=c1c2ccccc2c(C=Nc2cccc(O)c2)c(O)n1-c1ccc2c(c1)OCO2 |  | inconclusive [inhibitor, single point]
9 | CC1CC(C)CN(c2ccc(NS(=O)(=O)c3ccccc3)cc2C(=O)O)C1 (configuration not stated) | inactive: 20% | 
10 | CCCNC(=S)N1CCC(C(=O)c2ccc(Cl)cc2)CC1 |  | inconclusive [inhibitor, partial curve, poor fit]
11 | C=CCn1c(SCC(=O)N2CCOCC2)nc2sc3c(c2c1=O)CCCC3 |  | inconclusive [inhibitor, partial curve, poor fit]
12 | CCN(CC)S(=O)(=O)c1ccc(C(=O)Nc2cc3oc4ccccc4c3cc2OC)cc1 | inactive: -13.3% | 
13 | CCNC(=O)NC(=O)C(C)OC(=O)c1cccn1C (configuration not stated) |  | active: 10.4 µM
14 | C=CCn1c(COc2ccc(F)cc2)nnc1SC(C)C(=O)NCC1CCCO1 (configuration not stated) |  | inconclusive [inhibitor, single point]
15 | OC[C@H]1O[C@@H](Oc2ccc3cc(Br)ccc3c2)[C@H](O)[C@@H](O)[C@H]1O |  | inconclusive [inhibitor, single point]
16 | CCOC(=O)CC1C(=O)NCCN1C1CCCC1 (configuration not stated) | inactive: 55.1% | 
17 | COc1ccc([N+](=O)[O-])cc1NC(=O)C(C)OC(=O)C1CCCC1 (configuration not stated) |  | inconclusive [inhibitor, partial curve]
18 | CCN(CC)CCN(C(=O)c1cc2ccccc2cc1OC)c1nc2ccc(F)cc2s1 |  | inconclusive [inhibitor, partial curve]
19 | COc1cc(OC)c(N(C)S(=O)(=O)c2cccc(C(=O)OCC(=O)c3c[nH]c4ccccc34)c2)cc1Cl |  | active: 1.85 µM
20 | COC(=O)c1ccc(Oc2c(C)oc3c(CN4CCN(C)CC4)c(O)ccc3c2=O)cc1 |  | inconclusive [inhibitor, single point]
21 | COC(=O)C1=C(c2ccc(OC(F)(F)F)cc2)C[C@@H]2CC[C@H]1N2C(=O)NCCc1ccccc1 |  | active: 3.7 µM

Row | SMILES | activity change, negative = inhibition | Potency
22 | COc1ccc(-c2cn(CC3CCCCC3)nn2)cc1 | inactive: 59.8% | 
23 | O=C(Nc1ccc2nc(-c3ccc(Br)o3)[nH]c2c1)c1cccs1 |  | inconclusive [inhibitor, single point]
24 | CCCCN(CCCC)c1ncnc2nc[nH]c12 | inactive: -20.3% | 
25 | COc1cc([N+](=O)[O-])cc(/C=N\NC(=O)C2COc3ccccc3O2)c1O (configuration not stated) |  | inconclusive [inhibitor, single point]
26 | Cc1cc(-c2ccc(C(C)C)c(S(=O)(=O)N3CCN(c4ccccn4)CC3)c2)on1 |  | inconclusive [inhibitor, full curve]
27 | Cc1ccccc1-n1c(SCC(=O)c2c(N)n(C3CC3)c(=O)[nH]c2=O)nnc1N1CCOCC1 |  | inconclusive [inhibitor, single point]
28 | Cc1nn(-c2ccccc2)c(C)c1-c1cc(C(=O)N/N=C/c2ccc(O)cc2)[nH]n1 |  | inconclusive [inhibitor, single point]
29 | CCC1CCCCN1C(=O)CN1C(=O)c2ccccc2S1(=O)=O (configuration not stated) |  | inconclusive [inhibitor, partial curve, poor fit]
30 | O=C(CSCc1ccccc1Br)N/N=C/c1ccc(OCC(=O)N2CCCCC2)cc1 |  | inconclusive [inhibitor, single point]
31 | CCN1CCCC1Cn1cnc2c([nH]c3ccc(C)cc32)c1=O (configuration not stated) | inactive: 29.3% | 
32 | CCN(CC(=O)NCc1ccco1)S(=O)(=O)c1ccc(OC)cc1 |  | inconclusive [inhibitor, single point]
33 | O=C(C1COc2ccccc2O1)N1CCN(c2ccccc2O)CC1 (configuration not stated) |  | inconclusive [inhibitor, single point]
34 | CC/C(=N\Nc1ccc([N+](=O)[O-])cc1[N+](=O)[O-])c1ccc(O)cc1 | inactive: -17.8% | 
35 | CCCCn1c(N)c(N(CC(C)C)C(=O)COC(=O)Cc2cccc(OC)c2)c(=O)[nH]c1=O |  | inconclusive [inhibitor, single point]
36 | CC(=O)Nc1ccc(S(=O)(=O)N[C@@H](C)C(=O)OCC(=O)NC2CCCC2)cc1 |  | inconclusive [inhibitor, single point]
37 | COc1cc(NC(=O)CSc2ccc(-c3ccccn3)nn2)cc(OC)c1 |  | inconclusive [inhibitor, single point]
38 | CCN1C(=O)C(CC(=O)Nc2ccc(C)cc2C)Nc2cc(S(=O)(=O)N(C)C)ccc21 (configuration not stated) |  | inconclusive [inhibitor, single point]
39 | CCOC(=O)N1CCN(C(=O)c2ccc(CNS(=O)(=O)c3ccc(C)cc3)cc2)CC1 |  | inconclusive [inhibitor, single point]
40 | CCOc1ccccc1NC(=O)c1sc2nc(C)nc(N3CCOCC3)c2c1C |  | inconclusive [inhibitor, partial curve, poor fit]
41 | COc1nc(-c2ccccc2)nc(C)c1CC(=O)O | inactive: 31.5% | 
42 | Cc1ccc(CNC(=O)C2CCCN2S(=O)(=O)c2ccc3c(c2)C(C)(C)C(=O)N3C)cc1 (configuration not stated) |  | inconclusive [inhibitor, partial curve, poor fit]
